{"source": "PubChem BioAssay AID504706", "about": "(National Center for Advancing Translational Sciences (NCATS), 2011)", "note": "The campaign covered roughly 320,000 compounds. About 200 (0.062%) were called active. Inconclusive means that the source gave no clear call. Such entries were picked first, then a sample of the others. Calls follow the shape of the dose curve; as a rule, active = well fitted activation curve with a large enough effect; inconclusive = small, poorly fitted or top-dose-only effect; inactive = no such curve, though single readings can be large or run the other way. No potency is given beside an inconclusive call; the fits are too rough."}
{"experiment": "qHTS assay for re-activators of p53 using a Luc reporter; also: nearly all actives have a fitted effect of over 45% in size; also: potency is read from the fitted curve at half-maximal effect; tags tell the direction and shape of the fitted curve", "settings": "H1299 p53-A138V BP100-luciferase reporter, luminescence, 24 h; series mostly up to 92.2 µM", "summary_of_the_method": "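p53-null H1299 cells stably carrying temperature-sensitive p53-A138V and a BP100-luciferase reporter were pinned with compounds (4-point, 1:5 series) and held 24 hrs at 37 deg C. Luminescence was read 10 min after detection reagent.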"}
{"molecule": "COc1ccc(C2/C=C\\CNCC(=O)N2Cc2ccc(F)cc2)cc1", "note": "(stereo not drawn)", "Potency": "inactive"}
{"molecule": "Cc1cccc(C(=O)Nc2cc(S(=O)(=O)N3CCOCC3)ccc2N2CCCC2)c1", "Potency": "inactive"}
{"molecule": "COc1ccc(-c2n[nH]c(=S)nc2-c2ccc(OC)cc2)cc1", "Potency": "inactive"}
{"molecule": "O=C(c1cc(-c2ccc(O)cc2)on1)N1CCCC1", "Potency": "inconclusive [activator, full curve, poor fit]"}
{"molecule": "CCOc1ccccc1C(=O)NC1CCN(Cc2ccccc2)CC1", "Potency": "inconclusive [activator, single point]"}
{"molecule": "O=[N+]([O-])c1ccc(OCc2n[nH]c(=S)n2-c2ccccc2)cc1", "Potency": "inactive"}
{"molecule": "CN(C)/N=C1\\CCS(=O)(=O)c2sccc21", "Potency": "inactive"}
{"molecule": "Cc1ccc(OCC(=O)c2cc(C)c(C)cc2C)c([N+](=O)[O-])n1", "Potency": "inconclusive [activator, single point]"}
{"molecule": "O=C(COC(=O)CNC(=O)c1ccccc1)Nc1nc(-c2ccccc2)cs1", "Potency": "inconclusive [activator, full curve, poor fit]"}
{"molecule": "CN1C(=O)/C(=C/C=C2\\SCCN2C)N(C)C1=S", "Potency": "inactive"}
{"molecule": "COc1ccc(S(=O)(=O)N[C@@H](CSCc2ccccc2)C(=O)O)cc1", "Potency": "inactive"}
{"molecule": "CC(=O)Nc1cccc(C(=O)OCCCOc2ccc(F)cc2)c1", "Potency": "inconclusive [activator, partial curve, poor fit]"}
{"molecule": "CC(C(=O)c1ccc(-c2ccccc2)cc1)[n+]1cccc(C(N)=O)c1", "note": "(stereo not drawn)", "Potency": "inconclusive [activator, single point]"}
{"molecule": "O=C(Nc1cccc(Cl)c1)c1cnn2cccnc12", "Potency": "inconclusive [activator, full curve, poor fit]"}
{"molecule": "COc1ccccc1CNS(=O)(=O)c1cccs1", "Potency": "inconclusive [activator, partial curve, poor fit]"}
{"molecule": "O=C(CCCCCn1c(=O)[nH]c2ccsc2c1=O)N1CCN(C2CCCCC2)CC1", "Potency": "inconclusive [activator, single point]"}
{"molecule": "O=C(c1cccc(Br)c1)c1coc2ccc(O)cc12", "Potency": "inconclusive [activator, partial curve, poor fit]"}
{"molecule": "Cc1ccc(NC(=O)c2ocnc2C)cc1Cl", "Potency": "inconclusive [activator, partial curve, poor fit]"}
{"molecule": "Cc1ccc(NC(=O)NCC2CC2(Cl)Cl)cc1", "note": "(stereo not drawn)", "Potency": "inconclusive [activator, partial curve, poor fit]"}
{"molecule": "COc1ccc(S(=O)(=O)NCC2CCCN(Cc3ccccc3Cl)C2)cc1", "note": "(stereo not drawn)", "Potency": "inactive"}
{"molecule": "Cc1[nH]n(-c2ccccc2)c(=O)c1/C=N/NC(=O)c1ccoc1C", "Potency": "inconclusive [activator, partial curve, poor fit]"}
{"molecule": "CCNC(=S)NNC(=O)c1cc(-c2cccc(C)c2)nc2ccccc12", "Potency": "inconclusive [activator, partial curve, poor fit]"}
{"molecule": "COc1cc(SC)ccc1C(=O)Nc1ccccc1", "Potency": "inconclusive [activator, partial curve, poor fit]"}
{"molecule": "CCc1ccc(C(=O)NC(=S)Nc2ccc3c(c2)OCCO3)cc1", "Potency": "inconclusive [activator, partial curve, poor fit]"}
{"molecule": "O=C(Cn1c(=O)oc2ccccc21)Nc1nc(-c2ccc(Br)cc2)cs1", "Potency": "inconclusive [activator, single point]"}
{"molecule": "Cc1ccc(-c2nsc(SCC(=O)Nc3ccc4c(c3)OCO4)n2)cc1", "Potency": "inconclusive [activator, partial curve]"}
{"molecule": "CN1CCN(C(=O)CCCN2C(=O)/C(=C/c3ccccc3)SC2=S)CC1", "Potency": "inconclusive [activator, partial curve, poor fit]"}
{"molecule": "O=C(NCCCN1CCOCC1)c1cc(-c2cccs2)on1", "Potency": "inconclusive [activator, single point]"}
{"molecule": "CN(C)c1ccc(N=Cc2ccco2)cc1", "Potency": "inconclusive [activator, partial curve, poor fit]"}
{"molecule": "O=C(CSc1ccc(-c2ccccc2)nn1)c1ccccc1", "Potency": "inconclusive [activator, single point]"}
{"molecule": "Cc1ccccc1C(=O)O/N=C1\\CCS(=O)(=O)c2sccc21", "Potency": "inconclusive [activator, full curve, poor fit]"}
{"molecule": "COc1cccc(-c2nnc(-c3ccc(C)o3)o2)c1", "Potency": "inconclusive [activator, full curve, poor fit]"}
{"molecule": "CCN(CC)CCN(C(=O)c1cc2c(ccc3ccccc32)oc1=O)c1nc2cc3c(cc2s1)OCCO3", "Potency": "inconclusive [activator, full curve]"}
{"molecule": "CCOC(=O)c1nn(-c2ccc(C)cc2)cc1O", "Potency": "inconclusive [activator, partial curve, poor fit]"}
{"molecule": "CCc1c(C)sc(NC(=O)c2cc(C3CC3)on2)c1C#N", "Potency": "inconclusive [activator, single point]"}
{"molecule": "CCOC(=O)CNC(=O)CSc1nc2nc(C)c(Br)cc2[nH]1", "Potency": "inconclusive [activator, single point]"}
{"molecule": "COc1cc(CN2CCN(Cc3c[nH]c4ccccc34)CC2CCO)cc(OC)c1", "note": "(stereo not drawn)", "Potency": "inconclusive [activator, full curve, poor fit]"}
{"molecule": "Cc1c(-c2ccc(Br)cc2)nc2ccccn12", "Potency": "inconclusive [activator, partial curve, poor fit]"}
{"molecule": "Cc1ccc2c(c1)sc1nc(=O)n(-c3ccccc3)c(=O)n12", "Potency": "inactive"}
{"molecule": "O=C(c1ccc2oc(CCCc3ccccc3)nc2c1)N1CCCCC1CO", "note": "(stereo not drawn)", "Potency": "inconclusive [activator, partial curve, poor fit]"}
{"molecule": "CC(C)(C)c1ccc(C(=O)Nc2ccc(C=C(C#N)C#N)cc2)cc1", "Potency": "inconclusive [activator, partial curve, poor fit]"}
{"molecule": "Cn1c(-c2ccc3c(c2)OCO3)cc(=O)c2ccccc21", "Potency": "inactive"}
{"molecule": "O=C(Nc1ccc(F)cc1)c1cccc(C(=O)Nc2ccc(F)cc2)c1", "Potency": "inactive"}
